According to ChEMBL document CHEMBL4888484, “Replenishing the malaria drug discovery pipeline: Screening and hit evaluation of the MMV Hit Generation Library 1 (HGL1) against asexual blood stage Plasmodium falciparum ,using a nano luciferase reporter read-out” (2022):
The campaign covered roughly 150,000 compounds. About 540 (0.36%) showed an effect of 50% or more. This is one part of the list.

test system: Plasmodium falciparum; experiment: Primary screen in NF54 nanoGlo assay, in single point, at 2uM, 72h; a lower Z score goes with more inhibition; type: functional, Erythrocyte; conditions: timepoint 72 hour

Structure (SMILES) | % Inhibition | Z score
Cc1c(-c2noc(C(=O)NC3CC3)n2)oc2c(C)cccc12 | -9% | 1.19
CN(CCc1cnn(C)c1)c1cc([C@H]2CCOC2)ncn1 | 4% | -0.39
O=C1CC[C@@H](C(=O)N2CCN(c3ccc(F)cn3)CC2)n2cccc21 | -9% | 1.11
CCOc1ccc(C(=O)NCc2nccnc2-c2cccnc2)cc1 | -8% | 0.87
CC(C)Cc1cc(C(=O)Nc2c[nH]nc2-c2nccs2)cc(O)n1 | -1% | 0.11
COc1ccc(C2c3c(-c4ccccc4)nc(N)n3NC(=O)C2C#N)cc1 (centres undefined) | -8% | 1.02
O=C(c1ccc(C2CCCOC2)cc1)N1CCOC2CCCCC21 (centres undefined) | -9% | 1.05
O=C(O)[C@H]1[C@@H]2CN(Cc3nc(-c4ccccc4)cs3)C[C@@H]21 | -8% | 0.97
O=C1CCN(C(=O)COCC2CCCO2)C(C2CC2)C1 (centres undefined) | 27% | -3.47
Nc1nnnn1CC(=O)NCCCc1ccco1 | 4% | -0.66
CN(C)CCn1nccc1NC(=O)CC(C)(C)C#N | -3% | 0.28
Cc1cc(C(=O)COc2ccc(C(C)C)cc2)c(C)n1[C@H]1CCS(=O)(=O)C1 | -5% | 0.72
O=C1C[C@@H](c2nc(C3CCOCC3)n[nH]2)c2ccccc2N1 | -9% | 1.74
NC(=O)[C@@H]1C[C@@H](F)CN1C(=O)c1ccc2[nH]cnc2c1 | 8% | -0.97
CCC(=O)N1CCCN(Cc2nc3ccccc3c(=O)[nH]2)CC1 | -6% | 0.78
O=C1C2C[C@@H](O)CN2C(=O)N1c1cccc2ccccc12 (some centres undefined) | -4% | 0.46
C[C@H]1OCC[C@H]1NC(=O)[C@@H]1CC[C@H](C(=O)N[C@@H]2CCO[C@@H]2C)C1 | -1% | 0.22
O=C(c1ccc2[nH]nnc2c1)N1CCC(n2cnnc2)CC1 | -16% | 1.45
CN(CCC(=O)NC(C)(C)C)Cc1ccon1 | -19% | 1.7
Cc1ccc(C(=O)N2CCC3(CC2)C[C@@H](N2CCN(c4ccccc4)CC2)CCO3)cn1 | -27% | 2.91
CC(C)OC(=O)[C@H](Cc1ccc(O)cc1)NC(=O)C1CCCC(=O)N1 (some centres undefined) | 2% | -0.32

Structure (SMILES) | % Inhibition | Z score
COc1ccc(NC(=O)c2csc(COc3ccc4c(c3)[C@H](c3cccc(F)c3)N(C(C)=O)CC4)n2)cc1 | -11% | 0.99
C[C@H]1CCCCN1CCCNC(=O)c1cc2n(n1)CCN(Cc1ccc(Cl)cc1)C2=O | -6% | 0.68
CCc1nnc(NCCc2ccc3c(c2)CCO3)nc1CC | -17% | 1.66
O=C(NC1CCN(Cc2cc(F)cc(F)c2)CC1)[C@H](O)C1CCCCC1 | -8% | 1.14
CCn1c(CN2CCc3ccccc3C2)nc2cc(S(=O)(=O)N3CCCCC3)ccc21 | -2% | 0.24
COC(=O)c1cc(Cl)cc(C)c1NC(=O)[C@@H]1CCCCO1 | -2% | 0.43
CCOC(=O)c1cn(C)nc1NC(=O)[C@@H](C)C1CC1 | -17% | 1.87
CCc1nnc2ccc(C(=O)NC[C@H](C)O)cn12 | -7% | 1.18
CCOC(=O)C1CCN(CNC(=O)c2ccccc2)CC1 | 1% | -0.14
CC(C)(C)CNCC(=O)NCc1ccco1 | -10% | 1.26
CC(=O)N[C@H]1CN(c2ncnc(C)c2C)C[C@@H]1c1ccc(C)cc1 | -1% | 0.11
Cc1cc(C(=O)Nc2nc3c(s2)CCCC3)n(C)n1 | 11% | -1.45
NC(=O)CC1CCN(S(=O)(=O)CCc2ccccc2)CC1 | -2% | 0.28
CC(C)N1CCC[C@H](C(=O)N2CCC3(CC2)C(=O)N(C)c2ccccc23)C1 | -14% | 1.27
O=C(NCc1cccnc1-n1ccnc1)c1ccccc1Cl | 2% | -0.22
CC(C)C[C@@](C)(CO)NCC(=O)NC1CCCC1 | 10% | -1.32
CCN1CCCCc2cc(C(=O)N(C)CCN(C)C)sc21 | -14% | 2.2
C=CCN1C[C@H](C)N(CCn2cc(Cl)cn2)C[C@@H]1C | -5% | 0.98
CCCn1nnc2cc(S(=O)(=O)N3CCCC[C@H]3C(=O)Nc3cc(OC)ccc3OC)ccc21 | -15% | 1.34
Cn1ccc2cccc(NC(=O)N3CC(C)(CO)C3)c21 | 30% | -4.3
Cc1cnn(Cc2ccccc2Cl)c1NC(=O)N[C@H]1CCC(=O)N(C)C1 | 11% | -1.56
